B1: CPEB3 Ribozyme (parent)
chain: UAACAGGGGGCCACAGCAGAAGCGUUCACGUCGCAGCCCCUGUCAGAUUCUGGUGAAUCUGCGAAUUCUGCUGUAUAUCUC

The source gives no read counts; variants with many changes may rest on few reads.

The variants in the series derive from B1. The experiment in a line: self-cleavage, relative activity (ratio to wild type); higher = more cleavage; in vitro, sequencing. Put shortly:
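CPEB3 self-cleaving ribozyme mutant libraries were made by rounds of error-prone PCR, barcoded, and transcribed in vitro with T7 RNA polymerase for 5 hours at 37°C. Cleavage occurred during transcription and a 15 min DNase I step before EDTA stop. RNAs were reverse transcribed with template switching and Illumina-sequenced, with DNA sequencing mapping barcodes to variants. Relative activity is the variant's cleaved/total read fraction divided by wild type's (minimum 5 reads), averaged across three batches.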
With UGACAGGAGGCCACAGCAGAAGCGUUCACGUUGCAGCCCCUGUCAGAUUCCGGUGAAUCUGCGAACACUGCUGUAUAUCUC [A2G G8A C32U U51C U66C U67A], the self-cleavage came out at 0.11. For the variant UGACAGUGGGCCACAGCAGAAGCGUUCACGUCGCAGCCCCCGUCAGAUUCUGGUGAAUCAGCGAAUUCUGCUGUAUACCUC [A2G G7U U41C U60A U78C], the self-cleavage came to 0.06. In the case of UGACAGGCGGCCACAGCAGAGAUGUUCACGUCGCAGCCCCUGUCAGACUCUGGUGAAUCUGCGAAUUCUGCUGUAUAUCUC [A2G G8C A21G G22A C23U U48C], the self-cleavage worked out at 0.05. Next, UGACAGGGGGCCAGAGCAGAGGCGUUCACGUCGCAGCCCCUGUCAGAUUCUGGUGAAUCUGCGAACUCUGAUGUAAAUCUC [A2G C14G A21G U66C C71A U76A]: 0.08; UGACAGGGGGCCACAGCAGAAGCGUUCACGUCGCAGCUCCUGUCAGAUUCUGGGGAAUCUGCGAAUUUUGCUGUAUGUCUC [A2G C38U U54G C68U A77G]: 0.31. Next, UGACAGCGGGCCACAGCAGAAGCGUUCACGCCGCCGCCCCUGUCAGAUUCUGGUGAAUCUGAGAAUUCUGCUGAAUAUCUC [A2G G7C U31C A35C C62A U74A]: 0.52; UGACAGGGGGCCACAGCAGAAGCGUUCACGUCGCAGCCCUUGUCAGAAUCUGGUGAAUCCGCGAAUUCUGCUGUAUAUCUC [A2G C40U U48A U60C]: 0.04. Next, UGACAGGGGGCCACAGCAGAAGCGUUCAAGUCGCAGCCCCUGUCAGAUUCCGGUGAAUCUGCGAAUUCUGCGGUAUAUCUC [A2G C29A U51C U72G]: 0.11; UGACAGGGGGCCACAGCAGAAGCGUUCACGUCGCAGCCCUUGUCAGAUUCCGGUGAAUCUGCGAAUUCUGCUGUAUAUCUC [A2G C40U U51C]: 0.67; UGACAGGGGGCUACAGCAGAAGCGUUCACGUCGCAGCCCCUGUCGGAUUCUGGUGAAUCUGCGAAUUCUGCUGUAUAUCUC [A2G C12U A45G]: 0.75.

Take UGACAGGAGGCCACAGCAGAAGCGUUCACGUCGCAGCCCCUGUCGGAUUCAGGUGAAUCUGCGAAUUCUGCUGUAUAUCUC [A2G G8A A45G U51A]: the self-cleavage worked out at 0.02. With UGACAGGGGGCCACAGCAGAAGCGUUCACGUCGCAGCCCUUGUCAGAUCCUGGUGAAUCUGCGAAUUCUGCUGUAUAUCUC [A2G C40U U49C] the figure was 0.31.

Turning to UGACAGGGGGGCACAGCAGAAGCGUCCACGCCGCAGCCCCUGGCAGAUUCUGGUGAAUCUGCGAAUUCUGCUGUAUAUCUC [A2G C11G U26C U31C U43G], the self-cleavage was 0.05. Next, UGACAGGGGGCCACAGCAGAAGUGUUCACGUCGCAGCCCCCGUCAGAUUCUGGUGAAUCUGCGUAUUCUGCUGUAUAUCUC [A2G C23U U41C A64U]: 0.34; UGACAGGUGGCCACAGCAGAAGCGUUCACCUCGCAGCCCCUGUCAGAUUCUGGUGAAUCUGCGAAUUCUGCUGUAUAUCUC [A2G G8U G30C]: 0.07; UGACAGGUGGCCACAGCAGAAGCGUUCACGUCGCAGCCCCUGUCAGAUUCUGGUGAACCUGCGAAUUCUGCUGUAUAUCUC [A2G G8U U58C]: 0.19. Regarding UGACAGGGGGCCACAGCAGAAGAGUUCGCGUCGCAGCCCCAGUCAGAUUCUGGUGAAUCAGCGAAUUCUGCUGUACAUCUC [A2G C23A A28G U41A U60A U76C], the self-cleavage amounted to 0.05. With UGACAGGGGGUCGCGGCAGAAGCGUUCACGACGCAGCCCCUGACAGAUUCUGGUGAAUCUGCGAAUUCUGCUAUAUAUCUC [A2G C11U A13G A15G U31A U43A G73A] the figure was 0.26; with UGACAAGGGGCCACAGCAGAGGCGUUAACGUCGCAGCCCCUGUCAGAUUCUGGUGAAUCUGCGUAUUCCGCUGUACAUCUC [A2G G6A A21G C27A A64U U69C U76C], 0.09; with UGACAGGGGGCCACAGCAGAAGUGUUCACGUCGCAGCCCAUGUCAGAUUCUGGUGAAUCUGCGAGUUCUGCUGUAUAUCUC [A2G C23U C40A A65G], 0.04. With UGACACGGGGCCACAGCAGAAGCGUUCACGUCGCAGCCCCUGUCAGAUUCUAGUGAAUCUGCGAAUUCUGCUGUAUAUCUC [A2G G6C G52A] the figure was 0.11; with UGACAGGGAGCCACAGCAGGAGCGUUCACGUCGCAGCCCCUGUCAGAUUCUGGGGAAUCUGCGGGUUCUGCUGUAUAUCUC [A2G G9A A20G U54G A64G A65G], 0.05.

In the case of UGACAGGGGGCCACAGCAGAAGCGUUCAUGUCGCAGCCCCUGCCAGAUUCUGGUGAAUCUGCGAAUUCCGUAGUAUAUCCC [A2G C29U U43C U69C C71U U72A U80C], the self-cleavage was determined as 0.17.

UGACAGGGGGACCCAGCAAAAGCGUUCACGUCGCAGCCCCUGUCAGAUUCUGGAGAAUCUGCGAUUUCUGCUGUAUAUCUC [A2G C11A A13C G19A U54A A65U]: the self-cleavage was 0.13. With UGACAGGGAGCCACAGCAGAAGGGUUCACGUCGCAGCCCCUGUCAGAUUCUGGUGAAUCUGCGAACUCUGCCGUAAAUCUC [A2G G9A C23G U66C U72C U76A] the figure was 0.04; with UGACAGGCGGCCACAGCAGAAGCGUUCACGUCGCAGCCCCUGUCGGAUUCUGGUGAAACUGCGAAUUCUGCUGUAUAUCUC [A2G G8C A45G U58A], 0.07; with UGACAGGAGGCCACAGCAGAAGCGCUCACGACGCAGCCCCUGUCAGAUUCUGGUGAAUCUGCGAAUUCUGCUGUAUAUCUC [A2G G8A U25C U31A], 0.1. UGACAGUGGGCCACAGCAUAGGCGUUCACGUCGCAGCCCCUGUCAGAUCCUGGUGAAUCUGCGAAUUCUGCUGUAAAUCUC [A2G G7U G19U A21G U49C U76A]: the self-cleavage worked out at 0.14.

Consider UGACAGGGGGGCACAGCAGAAGCGAUCACGUCGCAGCCCCUGUCCGUUUCUGGUGAAUCUGCGAAUUCUGCCGUAUAUCUC [A2G C11G U25A A45C A47U U72C], for which the self-cleavage stood at 0.06. With UGACAGGGGGCCACAGAAGAAGCGUUCACGUCGCAGCCCCUGUCAGAUUCUGGUGAAACUGCGAAUUCUGCAGUAUAUCUC [A2G C17A U58A U72A], the self-cleavage is 0.17.

Turning to UGACAGGGGGCCACAGCAGAAGCGUUCAUGUCGCAGCCCUUGUCAGAUUCUGGUGAAUCUGCGAAUUCUGCUGUAUGUCUC [A2G C29U C40U A77G], the self-cleavage came out at 0.06.

As for UGACAGGGGGUCACAGCAGAAGCGUUCACGUCGCGGCCCCUGUCUGAGUCUGGUGUAUCUGCGAAUUCUGCUGUACAUCUC [A2G C11U A35G A45U U48G A56U U76C], the self-cleavage is 0.04. Next, UGACAGGGGGCCACAGCAGAAGCGUUCACGUCGCAGUCCCUGUCAGAUUCUGGUGAGUCUGCGAAUCCUGCUGUAUAUCUC [A2G C37U A57G U67C]: 0.11. With UGACAGGGGGGCACAGCAGGAGCGUUCACGUCGCAGCCCCCGUCAGAUUCUGGUGAAUCUGCGAAUUCUGCUGUAUAUCUC [A2G C11G A20G U41C] the figure was 0.34.

The record behind these values is the RNAGym collection of RNA variant scans (doi:10.1093/nar/gkz1192).
